These are yes or no findings as the source states them, for the method shown. For some assays here: Binding seen in cells or lysates may run through a third protein. Some entries that bind do so weakly or less than the wild type. Tags and fused reporters may be left off the sequences shown.
T1: CLAMP^1–153 (GAL4 fusion for Y2H) (D. melanogaster) (UniProt Q9V9N4)
T1 sequence: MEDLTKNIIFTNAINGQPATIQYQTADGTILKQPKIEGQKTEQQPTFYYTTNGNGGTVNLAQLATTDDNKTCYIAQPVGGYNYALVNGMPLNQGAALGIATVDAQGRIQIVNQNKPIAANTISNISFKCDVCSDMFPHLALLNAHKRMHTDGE

T2: GST-tagged CLAMP^1–113 (D. melanogaster) (UniProt Q9V9N4)
T2 sequence: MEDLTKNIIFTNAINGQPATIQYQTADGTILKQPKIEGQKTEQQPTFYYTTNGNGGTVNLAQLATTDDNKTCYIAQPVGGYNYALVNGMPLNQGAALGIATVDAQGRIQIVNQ


Assays:
[1] = biological target: T1, CLAMP^1–153 (GAL4 fusion for Y2H) (D. melanogaster); assay: two-hybrid; GAL4 DNA-binding domain (pGBT9) and activation domain (pGAD424) fusions in yeast strain pJ69-4A; growth on selective media without tryptophan, leucine, histidine, or adenine, compared after 2-3 days; 30 °C
[2] = biological target: CLAMP^87–153 (purified, tag cleaved) (D. melanogaster) (UniProt Q9V9N4); assay: SAXS; in solution, BM29 BioSAXS beamline (ESRF); molecular weight from extrapolated I0; CLAMP 1-153 at 2.3 mg/mL, CLAMP 1-113 at 1.0 and 7.0 mg/mL, CLAMP 87-153 at 2.5 and 10.0 mg/mL; both purified
[3] = biological target: T2, GST-tagged CLAMP^1–113 (D. melanogaster); assay: pull-down; GST-fused and 6xHis-thioredoxin-fused CLAMP derivatives co-expressed in BL21; lysate on glutathione agarose in buffer C (20 mM Tris pH 7.5, 150 mM NaCl, 10 mM MgCl2, 0.1 mM ZnCl2, 0.1% NP40, 10% glycerol, 1 mM DTT), 4 °C, washes with 500 mM NaCl; SDS-PAGE, Coomassie

Row | binding [1] | binding [3] | Binder | other results
1 | binds |  | CLAMP^1–127 (GAL4 fusion for Y2H) (domain or fragment, UniProt Q9V9N4 1-127) MEDLTKNIIFTNAINGQPATIQYQTADGTILKQPKIEGQKTEQQPTFYYTTNGNGGTVNLAQLATTDDNKTCYIAQPVGGYNYALVNGMPLNQGAALGIATVDAQGRIQIVNQNKPIAANTISNISF | 
2 | binds |  | CLAMP^1–153 (GAL4 fusion for Y2H) (domain or fragment, UniProt Q9V9N4 1-153) MEDLTKNIIFTNAINGQPATIQYQTADGTILKQPKIEGQKTEQQPTFYYTTNGNGGTVNLAQLATTDDNKTCYIAQPVGGYNYALVNGMPLNQGAALGIATVDAQGRIQIVNQNKPIAANTISNISFKCDVCSDMFPHLALLNAHKRMHTDGE | 
3 |  |  | CLAMP^87–153 (purified, tag cleaved) (domain or fragment, UniProt Q9V9N4 87-153) NGMPLNQGAALGIATVDAQGRIQIVNQNKPIAANTISNISFKCDVCSDMFPHLALLNAHKRMHTDGE | binding [2]: no binding (tested: 2.5 and 10.0 mg/mL)
4 |  | binds | 6xHis-thioredoxin-tagged CLAMP^1–91 (domain or fragment, UniProt Q9V9N4 1-91) MEDLTKNIIFTNAINGQPATIQYQTADGTILKQPKIEGQKTEQQPTFYYTTNGNGGTVNLAQLATTDDNKTCYIAQPVGGYNYALVNGMPL | 
5 |  | binds | 6xHis-thioredoxin-tagged CLAMP^41–113 (domain or fragment, UniProt Q9V9N4 41-113) TEQQPTFYYTTNGNGGTVNLAQLATTDDNKTCYIAQPVGGYNYALVNGMPLNQGAALGIATVDAQGRIQIVNQ | 
